# Measurements taken from the supplement of paper PMC8728848.
# The list shows a part of the results.
# What was measured:
# Test in all cases: glycan array binding signal (z-score within array); higher = stronger binding
# Conditions in all cases: glycan notation: IUPAC condensed, linker removed
# [1] = molecular target: Gal(b1-4)GlcNAc(b1-3)Gal(b1-4)GlcNAc(b1-2)[Gal(b1-4)GlcNAc(b1-3)Gal(b1-4)GlcNAc(b1-6)]Man(a1-6)[Gal(b1-4)GlcNAc(b1-3)Gal(b1-4)GlcNAc(b1-2)Man(a1-3)]Man(b1-4)GlcNAc(b1-4)GlcNAc
# How it was run: (§1)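 Arrays were curated from the Consortium for Functional Glycomics database, 3228 in total, and kept only where the protein sequence was available. Binding is expressed as a within-array Z-score. This score was averaged across arrays of the same protein sequence at different concentrations or buffers and across linkers, and negative values can be read as non-binding.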
# [2] = molecular target: Gal(b1-4)GlcNAc(b1-3)Gal(b1-4)GlcNAc(b1-2)[Gal(b1-4)GlcNAc(b1-3)Gal(b1-4)GlcNAc(b1-6)]Man(a1-6)[Gal(b1-4)GlcNAc(b1-3)Gal(b1-4)GlcNAc(b1-2)Man(a1-3)]Man(b1-4)GlcNAc(b1-4)[Fuc(a1-6)]GlcNAc
# How it was run: as §1
# [3] = molecular target: Gal(b1-4)GlcNAc(b1-3)Gal(b1-4)GlcNAc(b1-3)Gal(b1-4)GlcNAc
# How it was run: as §1
# [4] = molecular target: Gal(b1-4)GlcNAc(b1-3)Gal(b1-4)GlcNAc(b1-3)Gal(b1-4)GlcNAc(b1-2)Man(a1-3)[Gal(b1-4)GlcNAc(b1-3)Gal(b1-4)GlcNAc(b1-3)Gal(b1-4)GlcNAc(b1-2)Man(a1-6)]Man(b1-4)GlcNAc(b1-4)GlcNAc
# How it was run: as §1
# [5] = molecular target: Gal(b1-4)GlcNAc(b1-3)Gal(b1-4)GlcNAc(b1-3)Gal(b1-4)GlcNAc(b1-2)Man(a1-3)[Gal(b1-4)GlcNAc(b1-3)Gal(b1-4)GlcNAc(b1-3)Gal(b1-4)GlcNAc(b1-2)Man(a1-6)]Man(b1-4)GlcNAc(b1-4)[Fuc(a1-6)]GlcNAc
# How it was run: as §1
# [6] = molecular target: Gal(b1-4)GlcNAc(b1-3)Gal(b1-4)GlcNAc(b1-3)Gal(b1-4)GlcNAc(b1-2)[Gal(b1-4)GlcNAc(b1-3)Gal(b1-4)GlcNAc(b1-3)Gal(b1-4)GlcNAc(b1-6)]Man(a1-6)[Gal(b1-4)GlcNAc(b1-3)Gal(b1-4)GlcNAc(b1-3)Gal(b1-4)GlcNAc(b1-2)Man(a1-3)]Man(b1-4)GlcNAc(b1-4)[Fuc(a1-6)]GlcNAc
# How it was run: as §1
# [7] = molecular target: Gal(b1-4)GlcNAc(b1-3)Gal(b1-4)GlcNAc(b1-3)Gal(b1-4)GlcNAc(b1-3)Gal(b1-4)GlcNAc(b1-2)Man(a1-3)[Gal(b1-4)GlcNAc(b1-3)Gal(b1-4)GlcNAc(b1-3)Gal(b1-4)GlcNAc(b1-3)Gal(b1-4)GlcNAc(b1-2)Man(a1-6)]Man(b1-4)GlcNAc(b1-4)GlcNAc
# How it was run: as §1
# [8] = molecular target: Gal(b1-4)GlcNAc(b1-3)Gal(b1-4)GlcNAc(b1-3)Gal(b1-4)GlcNAc(b1-3)Gal(b1-4)GlcNAc(b1-2)Man(a1-3)[Gal(b1-4)GlcNAc(b1-3)Gal(b1-4)GlcNAc(b1-3)Gal(b1-4)GlcNAc(b1-3)Gal(b1-4)GlcNAc(b1-2)Man(a1-6)]Man(b1-4)GlcNAc(b1-4)[Fuc(a1-6)]GlcNAc
# How it was run: as §1
# [9] = molecular target: Gal(b1-4)GlcNAc(b1-3)Gal(b1-4)GlcNAc(b1-3)Gal(b1-4)GlcNAc(b1-3)Gal(b1-4)GlcNAc(b1-2)[Gal(b1-4)GlcNAc(b1-3)Gal(b1-4)GlcNAc(b1-3)Gal(b1-4)GlcNAc(b1-3)Gal(b1-4)GlcNAc(b1-6)]Man(a1-6)[Gal(b1-4)GlcNAc(b1-3)Gal(b1-4)GlcNAc(b1-3)Gal(b1-4)GlcNAc(b1-3)Gal(b1-4)GlcNAc(b1-2)Man(a1-3)]Man(b1-4)GlcNAc(b1-4)[Fuc(a1-6)]GlcNAc
# How it was run: as §1
# [10] = molecular target: Gal(b1-4)GlcNAc(b1-3)Gal(b1-4)GlcNAc(b1-3)Gal(b1-4)GlcNAc(b1-3)Gal(b1-4)GlcNAc(b1-3)Gal(b1-4)GlcNAc(b1-2)Man(a1-3)[Gal(b1-4)GlcNAc(b1-3)Gal(b1-4)GlcNAc(b1-3)Gal(b1-4)GlcNAc(b1-3)Gal(b1-4)GlcNAc(b1-3)Gal(b1-4)GlcNAc(b1-2)Man(a1-6)]Man(b1-4)GlcNAc(b1-4)GlcNAc
# How it was run: as §1
# [11] = molecular target: Gal(b1-4)GlcNAc(b1-3)Gal(b1-4)GlcNAc(b1-3)Gal(b1-4)GlcNAc(b1-3)Gal(b1-4)GlcNAc(b1-3)Gal(b1-4)GlcNAc(b1-2)Man(a1-3)[Gal(b1-4)GlcNAc(b1-3)Gal(b1-4)GlcNAc(b1-3)Gal(b1-4)GlcNAc(b1-3)Gal(b1-4)GlcNAc(b1-3)Gal(b1-4)GlcNAc(b1-2)Man(a1-6)]Man(b1-4)GlcNAc(b1-4)[Fuc(a1-6)]GlcNAc
# How it was run: as §1
# [12] = molecular target: Gal(b1-4)GlcNAc(b1-3)Gal(b1-4)GlcNAc(b1-3)Gal(b1-4)GlcNAc(b1-3)Gal(b1-4)GlcNAc(b1-3)Gal(b1-4)GlcNAc(b1-2)[Gal(b1-4)GlcNAc(b1-3)Gal(b1-4)GlcNAc(b1-3)Gal(b1-4)GlcNAc(b1-3)Gal(b1-4)GlcNAc(b1-3)Gal(b1-4)GlcNAc(b1-6)]Man(a1-6)[Gal(b1-4)GlcNAc(b1-3)Gal(b1-4)GlcNAc(b1-3)Gal(b1-4)GlcNAc(b1-3)Gal(b1-4)GlcNAc(b1-3)Gal(b1-4)GlcNAc(b1-2)Man(a1-3)]Man(b1-4)GlcNAc(b1-4)[Fuc(a1-6)]GlcNAc
# How it was run: as §1
# [13] = molecular target: Gal(b1-4)GlcNAc(b1-3)Gal(b1-4)GlcNAc(b1-3)Gal(b1-4)GlcNAc(b1-3)Gal(b1-4)GlcNAc(b1-3)Gal(b1-4)GlcNAc(b1-3)Gal(b1-4)GlcNAc(b1-2)Man(a1-3)[Gal(b1-4)GlcNAc(b1-3)Gal(b1-4)GlcNAc(b1-3)Gal(b1-4)GlcNAc(b1-3)Gal(b1-4)GlcNAc(b1-3)Gal(b1-4)GlcNAc(b1-3)Gal(b1-4)GlcNAc(b1-2)Man(a1-6)]Man(b1-4)GlcNAc(b1-4)GlcNAc
# How it was run: as §1
# [14] = molecular target: Gal(b1-4)GlcNAc(b1-3)Gal(b1-4)GlcNAc(b1-3)GalNAc
# How it was run: as §1
# [15] = molecular target: Gal(b1-4)GlcNAc(b1-3)Gal(b1-4)GlcNAc(b1-3)[Gal(b1-4)GlcNAc(b1-3)Gal(b1-4)GlcNAc(b1-6)]GalNAc
# How it was run: as §1
# [16] = molecular target: Gal(b1-4)GlcNAc(b1-3)Gal(b1-4)GlcNAc(b1-6)[Gal(b1-3)]GalNAc
# How it was run: as §1
# [17] = molecular target: Gal(b1-4)GlcNAc(b1-3)Gal(b1-4)[Fuc(a1-3)]GlcNAc(b1-3)Gal(b1-4)[Fuc(a1-3)]GlcNAc
# How it was run: as §1
# [18] = molecular target: Gal(b1-4)GlcNAc(b1-3)GalNAc
# How it was run: as §1
# [19] = molecular target: Gal(b1-4)GlcNAc(b1-3)[Fuc(a1-3)GlcNAc(b1-6)]Gal(b1-4)Glc
# How it was run: as §1
# [20] = molecular target: Gal(b1-4)GlcNAc(b1-3)[Gal(b1-4)GlcNAc(b1-6)]Gal(b1-4)GlcNAc
# How it was run: as §1
# [21] = molecular target: Gal(b1-4)GlcNAc(b1-3)[GlcNAc(b1-6)]Gal(b1-4)GlcNAc
# How it was run: as §1
# [22] = molecular target: Gal(b1-4)GlcNAc(b1-6)Gal(b1-4)GlcNAc
# How it was run: as §1
# [23] = molecular target: Gal(b1-4)GlcNAc(b1-6)GalNAc
# How it was run: as §1
# [24] = molecular target: Gal(b1-4)GlcNAc(b1-6)[Gal(b1-3)]GalNAc
# How it was run: as §1
# [25] = molecular target: Gal(b1-4)GlcNAc(b1-6)[Gal(b1-4)GlcNAc(b1-3)]GalNAc
# How it was run: as §1
# [26] = molecular target: Gal(b1-4)GlcNAc6P
# How it was run: as §1
# [27] = molecular target: Gal(b1-6)Gal
# How it was run: as §1
# [28] = molecular target: Gal3S(b1-3)GalNAc
# How it was run: as §1
# [29] = molecular target: Gal3S(b1-3)GlcNAc
# How it was run: as §1
# [30] = molecular target: Gal3S(b1-3)[Fuc(a1-4)]GlcNAc
# How it was run: as §1
# [31] = molecular target: Gal3S(b1-4)Glc
# How it was run: as §1
# [32] = molecular target: Gal3S(b1-4)Glc6S
# How it was run: as §1
# [33] = molecular target: Gal3S(b1-4)GlcNAc
# How it was run: as §1
# [34] = molecular target: Gal3S(b1-4)[Fuc(a1-3)]Glc6S
# How it was run: as §1
# [35] = molecular target: Gal3S(b1-4)[Fuc(a1-3)]GlcNAc
# How it was run: as §1
# [36] = molecular target: Gal3S(b1-4)[Fuc(a1-3)]GlcNAc6S
# How it was run: as §1
# [37] = molecular target: Gal3S4S(b1-4)GlcNAc
# How it was run: as §1
binder,measurement,setting,value
Cohesin-marm-DC-ASGPR-CRD (protein) LDITSHHHHHHDDLDAVRIKVDTVNAKPGDTVRIPVRFSGIPSKGIANCDFVYSYDPNVLEIIEIEPGDIIVDPNPDKSFDTAVYPDRKIIVFLFAEDSGTGAYAITKDGVFATIVAKVKEGAPNGLSVIKFVEVGGFANNDLVEQKTQFFDGGVNVGDTTEPATPTTPVTTPTTTDDLDAASCPINWVEHQGSCYWFSRSGKTWPEAERYCQLENTHLVVINSREEQNFVQAHLGSAYTWMGLSDPEGVWKWVDGTDYSSGFQNWKPGQPDDWQGHGLGGGEDCAHFHPDGRWNDDVCQRSYHWVCEAGLTQASQDSH,glycan array binding signal (z-score),[1],0.567
same,glycan array binding signal (z-score),[2],-0.005
same,glycan array binding signal (z-score),[3],-0.431
same,glycan array binding signal (z-score),[4],-0.307
same,glycan array binding signal (z-score),[5],-0.304
same,glycan array binding signal (z-score),[6],-0.244
same,glycan array binding signal (z-score),[7],-0.188
same,glycan array binding signal (z-score),[8],-0.327
same,glycan array binding signal (z-score),[9],-0.321
same,glycan array binding signal (z-score),[10],-0.338
same,glycan array binding signal (z-score),[11],-0.081
same,glycan array binding signal (z-score),[12],-0.14
same,glycan array binding signal (z-score),[13],-0.278
same,glycan array binding signal (z-score),[14],-0.43
same,glycan array binding signal (z-score),[15],-0.367
same,glycan array binding signal (z-score),[16],-0.41
same,glycan array binding signal (z-score),[17],-0.355
same,glycan array binding signal (z-score),[18],-0.449
same,glycan array binding signal (z-score),[19],-0.423
same,glycan array binding signal (z-score),[20],-0.424
same,glycan array binding signal (z-score),[21],-0.447
same,glycan array binding signal (z-score),[22],-0.403
same,glycan array binding signal (z-score),[23],1.25
same,glycan array binding signal (z-score),[24],1
same,glycan array binding signal (z-score),[25],-0.405
same,glycan array binding signal (z-score),[26],-0.439
same,glycan array binding signal (z-score),[27],-0.4
same,glycan array binding signal (z-score),[28],-0.397
same,glycan array binding signal (z-score),[29],-0.393
same,glycan array binding signal (z-score),[30],-0.408
same,glycan array binding signal (z-score),[31],0.089
same,glycan array binding signal (z-score),[32],-0.23
same,glycan array binding signal (z-score),[33],-0.385
same,glycan array binding signal (z-score),[34],-0.395
same,glycan array binding signal (z-score),[35],-0.433
same,glycan array binding signal (z-score),[36],-0.069
same,glycan array binding signal (z-score),[37],-0.425
